Test results reported in PubChem BioAssay AID1645886 (National Center for Advancing Translational Sciences (NCATS), 2021).
Values joined by “and” are separate entries in the source; they are usually repeats but may differ in a detail not shown here. Equal entries are not always repeated. In all, about 16,000 compounds went through this assay and about 260 (1.6%) were called active. Inconclusive results, whose numbers are uncertain, are shown with a selection of clear calls. Calls come from the whole dose curve; as a rule, active = well fitted inhibition curve with a large enough effect; inconclusive = small, poorly fitted or top-dose-only effect; inactive = no such curve, though single readings can be large or run the other way. A potency beside an inconclusive call is a rough fit, not a confirmed value.
Note: nearly all actives have a fitted effect of over 40% in size.
Potency is the fitted concentration of half-maximal effect; tags give direction and shape of the fitted curve.

Each molecule was assayed against Rap guanine nucleotide exchange factor 4 (Homo sapiens) (UniProt Q8WZA2) (assay: Validation qHTS for antagonist of cAMP-regulated guanine nucleotide exchange factor 4 (EPAC2)). Settings: EPAC2 Rap1B BODIPY-GDP exchange, fluorescence; series mostly up to 112 µM.
Chain of UniProt Q8WZA2 (Q8WZA2 whole entry, looked up): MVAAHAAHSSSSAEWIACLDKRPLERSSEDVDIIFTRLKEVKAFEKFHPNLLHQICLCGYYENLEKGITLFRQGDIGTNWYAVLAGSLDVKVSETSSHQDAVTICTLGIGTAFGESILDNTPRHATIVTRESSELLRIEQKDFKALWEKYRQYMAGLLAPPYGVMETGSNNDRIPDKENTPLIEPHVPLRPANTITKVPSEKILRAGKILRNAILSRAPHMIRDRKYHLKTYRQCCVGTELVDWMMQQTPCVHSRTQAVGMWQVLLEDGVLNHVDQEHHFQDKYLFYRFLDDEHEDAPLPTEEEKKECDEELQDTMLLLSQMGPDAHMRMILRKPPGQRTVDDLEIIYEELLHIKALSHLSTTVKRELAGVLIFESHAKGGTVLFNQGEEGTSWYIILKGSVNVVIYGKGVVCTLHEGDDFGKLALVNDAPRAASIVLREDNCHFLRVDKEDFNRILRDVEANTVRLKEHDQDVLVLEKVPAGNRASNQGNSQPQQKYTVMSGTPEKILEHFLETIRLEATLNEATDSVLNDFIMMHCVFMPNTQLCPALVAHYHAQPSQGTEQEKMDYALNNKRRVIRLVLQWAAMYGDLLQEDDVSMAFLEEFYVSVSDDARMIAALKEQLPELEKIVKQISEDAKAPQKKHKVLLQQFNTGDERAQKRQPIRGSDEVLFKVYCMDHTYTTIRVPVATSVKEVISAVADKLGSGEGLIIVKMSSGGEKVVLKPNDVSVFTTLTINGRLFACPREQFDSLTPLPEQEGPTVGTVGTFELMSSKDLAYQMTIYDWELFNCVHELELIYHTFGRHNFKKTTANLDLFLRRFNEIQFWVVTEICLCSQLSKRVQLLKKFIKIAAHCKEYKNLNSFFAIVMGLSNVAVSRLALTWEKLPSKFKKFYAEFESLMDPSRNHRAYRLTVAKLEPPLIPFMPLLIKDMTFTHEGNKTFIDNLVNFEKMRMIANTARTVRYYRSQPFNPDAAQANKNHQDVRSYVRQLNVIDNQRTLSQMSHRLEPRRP
Outline: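 Normalized against a 6.5 mM cAMP agonist control, compounds were tested on 100 nM EPAC2 exchanging Rap1B-bound BODIPY-GDP (250 nM) for 50 uM GDP. Fluorescence drop (ex 480, em 540 nm) was tracked at room temperature over 30 min at 5-min intervals.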
With `CCc1ccccc1OC[C@@H](O)CN[C@H]1CCCc2ccccc21` the Potency was inconclusive: 112 µM [inhibitor, partial curve, poor fit].
For `Cc1sc2ccccc2[n+]1CCC[n+]1c(C)sc2ccccc21`, the Potency was “inactive”.
`Cc1[nH]ccc2c1[nH]c1cc(=O)ccc12` was tested, and the Potency was inconclusive: 50.1 µM [inhibitor, partial curve, poor fit].
`O=Cc1c2[nH]c3ccccc3c2cc2[nH]c3ccccc3c12` was tested, and the Potency was inconclusive: 0.199 µM [inhibitor, full curve].
In the case of `Oc1cc(O)c2c(c1)O[C@H](c1ccc(O)c(O)c1)[C@@H](O)C2`, the Potency is reported as “inactive”.
For `CCCCC(O)c1ccccc1` (stereo not drawn), the Potency was “inactive”.
With `C#C[C@]1(O)CC[C@H]2[C@@H]3CCC4=C/C(=N/O)CC[C@@H]4[C@H]3CC[C@@]21CC` the Potency was inconclusive: 12.6 µM [inhibitor, full curve].
In the case of `COc1cc(=O)n2c(c1C(=O)NCc1ccco1)CCN(C(=O)c1ccc(C)c(C)c1)CC2`, the Potency is reported as inconclusive: 89.1 µM [inhibitor, single point].
With `O=Cc1ccccc1C=O` the Potency was inconclusive: 56.2 µM [inhibitor, partial curve, poor fit].
`COC(=O)C1=C(C)NC(C)=C([N+](=O)[O-])C1c1ccccc1C(F)(F)F` (stereo not drawn) was tested, and the Potency was inconclusive: 44.7 µM [inhibitor, partial curve, poor fit] and active: 39.8 µM and inconclusive: 3.16 µM [inhibitor, full curve].
With `C[C@@H]1CN(Cc2ccc3c(c2)CN(C(=O)c2ccc(Oc4ccccc4)o2)CCO3)C[C@H](C)O1` the Potency was inconclusive: 79.4 µM [inhibitor, single point].
`O=C(C[n+]1ccc2ccccc2c1)c1ccc(F)cc1` was tested, and the Potency was inconclusive: 39.8 µM [inhibitor, single point].
`COc1ccccc1C(=O)N[C@@H]1c2ccccc2C2(CCN(Cc3ccc4c(c3)OCO4)CC2)[C@H]1O` was tested, and the Potency was inconclusive: 14.1 µM [inhibitor, full curve, poor fit].
With `O=C(Nc1ccc(Cl)cc1)Nc1ccc(Cl)c(Cl)c1` the Potency was inconclusive: 89.1 µM [inhibitor, single point].
With `CCNc1ncc2nc(-c3cccc(C#N)c3)c(=O)n(C)c2n1` the Potency was inconclusive: 10 µM [inhibitor, full curve, poor fit].
`N[C@H](CCCP(=O)(O)O)C(=O)O` was tested, and the Potency was inconclusive: 100 µM [inhibitor, single point].
With `COC(=O)[C@H](CC(C)C)NS(=O)(=O)N[C@@H](CC(C)C)C(=O)OC` the Potency was inconclusive: 79.4 µM [inhibitor, single point].
For `Cc1noc(C)c1CC(=O)NCC1Cc2cc(-c3cccc(OC(F)(F)F)c3)ccc2O1` (stereo not drawn), the Potency was inconclusive: 15.8 µM [inhibitor, full curve, poor fit].
In the case of `CC1(C)[C@@H](O)CC[C@]2(C)C3C(=O)C=C4C5C[C@@](C)(C(=O)O)CC[C@]5(C)CC[C@@]4(C)[C@]3(C)CC[C@@H]12` (stereo partly drawn), the Potency is reported as active: 3.98 µM.
For `Cc1cc(-c2ccc(N=Nc3c(S(=O)(=O)O)cc4cc(S(=O)(=O)O)cc(N)c4c3O)c(C)c2)ccc1N=Nc1c(S(=O)(=O)O)cc2cc(S(=O)(=O)O)cc(N)c2c1O`, the Potency was active: 50.1 µM.
For `Cc1ccccc1-c1nccc(NCc2cccs2)n1`, the Potency was inconclusive: 56.2 µM [inhibitor, partial curve].
In the case of `CC(NC(=O)c1ccco1)c1nnc2n1CCN(Cc1ccc(N3CCCC3)cc1)CC2` (stereo not drawn), the Potency is reported as inconclusive: 89.1 µM [inhibitor, single point].
For `CN(C)c1ccc(C(=C2C=CC(=[N+](C)C)C=C2)c2c(O)c(S(=O)(=O)[O-])cc3cc(S(=O)(=O)O)ccc23)cc1`, the Potency was active: 56.2 µM.
`COC(=O)C1CCN(Cc2ccc3c(c2)CN(C(=O)c2ncc(C)[nH]2)CCO3)CC1` was tested, and the Potency was “inactive”.
For `CCN(CC)CCc1nc(-c2ccccc2)no1`, the Potency was inconclusive: 15.8 µM [inhibitor, single point].
With `O=C(NCC1Cc2cccc(-c3cccnc3)c2O1)c1ccc2cc[nH]c2c1` (stereo not drawn) the Potency was inconclusive: 8.91 µM [inhibitor, full curve, poor fit].
For `COCC1CCCN(Cc2ccc3c(c2)CN(C(=O)c2cc(-c4ccccc4)n[nH]2)CCO3)C1` (stereo not drawn), the Potency was “inactive”.
With `CCC1(C2CCN(Cc3ccccc3Cl)CC2)NC(=O)N(CC2COc3ccccc3O2)C1=O` (stereo not drawn) the Potency was inconclusive: 12.6 µM [inhibitor, full curve, poor fit].
For `COc1ccc([C@H]2c3cc(OC)c(OC)cc3C[C@@H](C)[C@@H]2C)cc1OC`, the Potency was inconclusive: 10 µM [inhibitor, full curve].
For `Cc1cccc(C(=O)NCc2nc(-c3cccc(NC(=O)C4CCCN(C)C4)c3)oc2C)n1` (stereo not drawn), the Potency was “inactive”.
In the case of `C=CCN1[C@@H](Cc2ccccc2)COCCS1(=O)=O`, the Potency is reported as inconclusive: 56.2 µM [inhibitor, partial curve, poor fit].
For `CC(NCCC(c1ccccc1)c1ccccc1)c1ccccc1` (stereo not drawn), the Potency was inconclusive: 89.1 µM [inhibitor, single point].
With `FC(F)(F)c1ccccc1-c1ccc2ncnc(NCc3cccs3)c2c1` the Potency was inconclusive: 50.1 µM [inhibitor, partial curve].
`C[C@H](CCC(=O)O)C1CC[C@H]2C3CC[C@@H]4C[C@H](O)CC[C@]4(C)C3C[C@H](O)[C@]12C` (stereo partly drawn) was tested, and the Potency was inconclusive: 0.224 µM [inhibitor, full curve, poor fit].
With `Cc1c(C(=O)NCCCc2ccncc2)cnn1-c1ncc2c(n1)-c1ccccc1CC2` the Potency was inconclusive: 17.8 µM [inhibitor, partial curve, poor fit].
`CC[C@H](C)[C@H](NC(=O)[C@H](CCCN=C(N)N)NC(=O)[C@H](CCCN=C(N)N)NC(=O)[C@H](CC(C)C)NC(=O)[C@H](Cc1ccccc1)NC(=O)CNC(=O)CN)C(=O)N[C@@H](CCCN=C(N)N)C(=O)N1CCC[C@H]1C(=O)N[C@@H](CCCCN)C(=O)N[C@@H](CC(C)C)C(=O)N[C@@H](CCCCN)C(=O)O` was tested, and the Potency was inconclusive: 3.98 µM [inhibitor, single point].
`COc1ccc2[nH]cc(CCNc3ccnc(-c4ccoc4)n3)c2c1` was tested, and the Potency was active: 89.1 µM.
With `CC(C)C[C@@H](COc1ccccc1)N1CCN(C)CCC1=O` the Potency was inconclusive: 0.891 µM [inhibitor, full curve, poor fit].
In the case of `C[C@@H]1CN(Cc2ccc3c(c2)CN(Cc2cccn2-c2cccnc2)CCO3)C[C@H](C)O1`, the Potency is reported as “inactive”.
With `CC1(C)CCC[C@]2(C)C3CC(=O)O[C@@]3(C)CC[C@H]12` (stereo partly drawn) the Potency was inconclusive: 50.1 µM [inhibitor, partial curve].
In the case of `N#Cc1ccc(CN2CC[C@@]3(CCCN(C(=O)c4cc(C(F)(F)F)cc(C(F)(F)F)c4)C3)C2)cc1`, the Potency is reported as inconclusive: 31.6 µM [inhibitor, partial curve, poor fit].
With `CC[C@H](C)C(=O)O[C@H]1CCC=C2C=C[C@H](C)[C@H](CC[C@@H]3C[C@@H](O)CC(=O)O3)[C@H]21` the Potency was inconclusive: 31.6 µM [inhibitor, full curve, poor fit].
In the case of `COc1ccc(CCN(C)CCCC(C#N)(c2cc(OC)c(OC)c(OC)c2)C(C)C)cc1OC` (stereo not drawn), the Potency is reported as inconclusive: 35.5 µM [inhibitor, partial curve, poor fit].
In the case of `Clc1ccccc1-c1nc(-n2ccnc2)c2ccccc2n1`, the Potency is reported as inconclusive: 50.1 µM [inhibitor, partial curve].
`CCCC[C@H]1COCCS(=O)(=O)N1Cc1cccc(Cl)c1` was tested, and the Potency was inconclusive: 89.1 µM [inhibitor, partial curve, poor fit].
For `CNc1cc(OC)c(C(=O)N[C@H]2CCN(Cc3ccccc3)[C@H]2C)cc1Cl`, the Potency was inconclusive: 56.2 µM [inhibitor, partial curve, poor fit].
With `COc1ccccc1C1CN(CCNC(=O)[C@@H]2CSC(=O)N2)Cc2ccccc2O1` (stereo partly drawn) the Potency was “inactive”.
In the case of `CCC(=O)NCc1nc(-c2cccc(NC(=O)c3ccc(C)s3)c2)oc1C`, the Potency is reported as “inactive”.
With `O=C(/C=C/c1ccc(O)c(O)c1)OCCc1ccccc1` the Potency was inconclusive: 112 µM [inhibitor, partial curve] and inconclusive: 89.1 µM [inhibitor, single point].
For `COc1ccc(-c2nc3cncnc3n(-c3ccccc3)c2=O)cc1`, the Potency was “inactive”.
`C=C1[C@@H](O)[C@H](CC(C)C)N(Cc2ccccc2Br)S1(=O)=O` was tested, and the Potency was inconclusive: 50.1 µM [inhibitor, partial curve, poor fit].
For `CN1CCN(CCCN2c3ccccc3Sc3ccc(Cl)cc32)CC1`, the Potency was inconclusive: 10 µM [inhibitor, partial curve, poor fit].
With `O=[N+]([O-])c1ccc2c(c1)C=CC2` the Potency was inconclusive: 0.631 µM [inhibitor, full curve, poor fit].
For `Nc1nc(=S)c2[nH]cnc2[nH]1`, the Potency was inconclusive: 11.2 µM [inhibitor, partial curve, poor fit].
`O=C1c2ccccc2C(=O)c2c1ccc(O)c2O` was tested, and the Potency was inconclusive: 50.1 µM [inhibitor, partial curve].
In the case of `CCOC(=O)C[C@H]1c2ccc(C(F)(F)F)cc2S(=O)(=O)N1c1ccccc1`, the Potency is reported as inconclusive: 14.1 µM [inhibitor, partial curve, poor fit].
With `O=S1(=O)CCO[C@H]2Cc3ccccc3[C@H]2N1Cc1cccc(Cl)c1` the Potency was inconclusive: 56.2 µM [inhibitor, partial curve, poor fit].
For `COc1ccc(-c2coc3cc(OC)cc(OC)c3c2=O)cc1`, the Potency was inconclusive: 25.1 µM [inhibitor, single point].
